Data: the RNAGym collection of RNA variant scans (doi:10.7554/elife.90254)
The source gives no read counts; variants with many changes may rest on few reads.

B1: LINE1-mini (parent)
chain: GGCAGAGCUCAACACAGCGUGGCAAAGUGGCUGUGGCUAGACUGCC

Variants of: B1
Test: self-cleavage, relative activity (ratio to wild type); higher = more cleavage; in vitro, sequencing; the parent is a self-cleaving ribozyme

Variant	self-cleavage
A4G G7A C37G C45G	0.22
A4G G7A C45G	0.79
A4G G7A G19U U34A	0.32
A4G G7A G29A	0.36
A4G G7A G29U	0.15
A4G G7A G30A C31U G40C	0.24
A4G G7A G30U G36C	0.13
A4G G7A G36A G40A	0.32
A4G G7A U9C	0.04
A4G G7C A11U U28A G44U	0.02
A4G G7C A16C G35A	0.3
A4G G7C C8U G22C A26C G40A G44U	0.56
A4G G7C C10A A12C A14C	0.03
A4G G7C C13A A16G C31G C42U	0.01
A4G G7C C13A G17C G22C G27U	0.11
A4G G7C C13A U20G C31G A39G	0.02
A4G G7C C37A G40A C46G	0.04
A4G G7C G40A C42A	0.22
A4G G7C U9G C46U	0.08
A4G G7U A24G G27U	0.05
A4G G7U A25C G35A	0.28
A4G G7U C8G C10A G19A	0.01
A4G G7U C15U A41U	0.42
A4G G7U C23A C42G G44C	0.07

Variant	self-cleavage
A4G G7U C31A G33A C42U	0.08
A4G G7U G17A	0.38
A4G G7U G21C G22U A24G	0.04
A4G G7U G29A G33C	0.13
A4G G7U G44A	0.16
A4G G17A A25C	0.08
A4G G17A G19A U20G G40A	0.08
A4G G17A G27A U38C	0.05
A4G G17A U28A U38C U43C	0.02
A4G G17A U34A	0.09
A4G G17A U34G	0.04
A4G G17A U43G	0.1
A4G G17C C46U	0.32
A4G G17C G21A	0.54
A4G G17C G35A	0.04
A4G G17C G40U	0.08
A4G G17U G19C C37U	0
A4G G19A U20G	0.04
A4G G19A U43C	2.08
A4G G19C G22U A25U U38C G40C	0.1
A4G G19U A26C C45A	0.39
A4G G19U G22A	0.31
A4G G19U G40U	0.05
A4G G19U U20G G27C G36A G44A	0.05

Variant	self-cleavage
A4G G21A A24G G36U C37U	0.45
A4G G21A C46G	0.51
A4G G21A G22C G40A	0.06
A4G G21A G29A C31A	0.64
A4G G21A U32A	0.02
A4G G21C U34A U38C C46A	0.12
A4G G21U A25C C42A	0.07
A4G G21U G22U A26U A41C	0.02
A4G G21U G29C U43C	0.27
A4G G21U G35U U38A G44U	0.01
A4G G21U G44U	0.06
A4G G22A A25C G40C	0.07
A4G G22A A26G C37G	0.02
A4G G22A G33U	0.17
A4G G22A G40A C45G	0.02
A4G G22A G44A	0.11
A4G G22C C23U	0.21
A4G G22C C23U G30U G36U A39C	0.01
A4G G22C C46G	0.04
A4G G22U G27U	0.08
A4G G22U U32G	0.04
A4G G27A U43C	0.64
A4G G27C G29U	0.07
A4G G27C G30U C45A	0.23

Variant	self-cleavage
A4G G27C G35U	0.15
A4G G27U A41C	0.02
A4G G27U G30U A39C	0.02
A4G G29A G36U C42A	0.01
A4G G29C C37U C46G	0.06
A4G G29U A39U G40U	0.17
A4G G29U G40U	0.07
A4G G29U U43A	0.03
A4G G30A G33U U38C	0.07
A4G G30A G40C	0.17
A4G G30C G36A A39G G40U	0.11
A4G G30U A41C	0.12
A4G G30U C45G	0.25
A4G G30U G40C	0.08
A4G G30U G44C	0.04
A4G G33A A39C U43A	0.02
A4G G33A A41G	0.24
A4G G33A C37U	0.02
A4G G33C U34C A41C C42A	0.01
A4G G33C U34G G35U	0.63
A4G G33U A39U	0.03
A4G G33U C42G	0.03
A4G G33U U38A	0.15
A4G G35A U38C	0.77

Variant	self-cleavage
A4G G35C U38A C42U	0.1
A4G G35U C42U	0.05
A4G G35U U38G	0.05
A4G G36A U38G	0.05
A4G G36C U38G	0.02
A4G U9A A16C C23U	0.04
A4G U9A A25C C31U	0.09
A4G U9A G21A	0.36
A4G U9C A14G G22U	0.02
A4G U9C A14U C42G	0.01
A4G U9C A16U U20G	0.05
A4G U9C A24U U32C	0.02
A4G U9C A25U U34A C46A	0.07
A4G U9C C13G	0.01
A4G U9C G29C U34C	0.01
A4G U9C G35C	0.03
A4G U9C G35U G40U	0.02
A4G U9C G44U	0.04
A4G U9C U32G	0.01
A4G U9G A11C	0
A4G U9G A12G	0
A4G U9G C10A G27U	0.01
A4G U9G C15A	0.15
A4G U9G C31G U32A	0.04

Variant	self-cleavage
A4G U9G C37G	0.05
A4G U9G C45G	0.11
A4G U9G G19U A41C	0.09
A4G U9G U20A G27A G33U	0.3
A4G U20A G35C	0.05
A4G U20C A25U A26G	0.15
A4G U20C G30C	0.07
A4G U20G A24G	0.21
A4G U20G C31U U32C	0.04
A4G U20G G22U C23U C31A A39G	0.12
A4G U20G U34A	0.09
A4G U28A C31U	0.25
A4G U28A G33U G36U	0.08
A4G U28G G35C G36U	0.1
A4G U28G U32G C42U U43C	0.01
A4G U32A G40U	0.17
A4G U32C A39U	0.01
A4G U32G G33A A41U	0.02
A4G U32G U34A	0.08
A4G U34C U38C	0.02
A4G U38G A39U	0.31
A4G U43A G44C	0.01
A4U A6C C31G	0.02
A4U A6C C37G	0.02

Variant	self-cleavage
A4U A6C C45U	0.05
A4U A6G A11U A39C	0.03
A4U A6G A14U	0.04
A4U A6G A25U G30A	0.28
A4U A6G C10A	0.02
A4U A6G C23U A26U	0.1
A4U A6G C42A	0
A4U A6G G22A	0.04
A4U A6G G27C G33U	0.09
A4U A6G G27C U32C C37G	0.06
A4U A6G G27U	0.03
A4U A6G U9A C23G	0.05
A4U A6G U34A	0.22
A4U A6G U43G	0
A4U A6U A11C G19A C42A	0.04
A4U A6U A24C A25C	0
A4U A6U C13G	0.03
A4U A6U G21C	0.52
A4U A6U G29C G40U	0.12
A4U A6U G30A G33U A39G	0.02
A4U A6U U20A C42U C45U	0.03
A4U A6U U20C A26U C46A	0.03
A4U A11C A12C A24G G35A	0.06
